# From PubChem BioAssay (NCATS)
# “And” between values parts separate entries of the source, which are not always exact repeats. Equal entries are not always repeated. The shares of active, inactive and inconclusive entries below differ from those in the screen. For some of these results: Potencies beside an inconclusive call are fits to weak or partial responses and may not hold up. For some of these results: “Side channel” marks fits to a control or component signal instead of the main read-out. A structure can be active in one record and inactive in another. The source made the active and inactive calls. Unless noted, calls follow the shape of the dose curve; as a rule, active = well fitted curve in the direction sought with a large enough effect; inconclusive = small, poorly fitted or top-dose-only effect, or another doubt; inactive = no such curve, though single readings can be large; an effect the other way counts as inactive or inconclusive.
# Assays:
# [1] = NS1 protein of Zika virus - qHTS assay to identify small molecule inhibitors in human HEK 293 cells (AID 1347053); conditions: HEK293 ZIKV MR766 infection, NS1 TR-FRET, 24 h; series mostly up to 46.1 µM; also: nearly all actives have a fitted effect of over 55% in size; also: potency is read from the fitted curve at half-maximal effect
# Outline: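 HEK 293 cells, seeded 20 h at 37 C, were pretreated with compound 1 h, then infected with ZIKV MR766 (MOI = 0.5) for 24 h. NS1 was read by TR-FRET with two anti-NS1 antibodies, normalized to uninfected and infected wells.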
# [2] = qHTS of pediatric cancer cell lines to identify multiple opportunities for drug repurposing: Primary screen for TC32 cells (AID 1347089); conditions: TC32 Ewing sarcoma viability, CellTiter-Glo luminescence, 48 h; series mostly up to 45.8 µM; also: nearly all actives have a fitted effect of over 60% in size; also: potency is read from the fitted curve at half-maximal effect
# Outline: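 A viability screen of TC32 cells was run over 48 h, with primary MIPE doses spanning 0.78 nM–46 µM and NPC doses 0.59 nM–46 µM. ATP luminescence (CellTiter-Glo) served as the read-out.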
# [3] = qHTS of pediatric cancer cell lines to identify multiple opportunities for drug repurposing: Primary screen for DAOY cells (AID 1347090); conditions: DAOY medulloblastoma viability, CellTiter-Glo luminescence, 48 h; activity change, negative = cytotoxic: at 46 µM (top of the series) unless noted; also: nearly all actives have a fitted effect of over 55% in size; also: potency is read from the fitted curve at half-maximal effect
# Outline: (§1)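 Viability measured as metabolically active cells via CellTiter-Glo luminescence following 48 hours of compound exposure, 11-point dilutions in confirmatory testing. 500-1,000 cells/well plated 5 hours before dosing; controls were DMSO and 2.3 µM bortezomib.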
# [4] = qHTS of pediatric cancer cell lines to identify multiple opportunities for drug repurposing: Primary screen for SJ-GBM2 cells (AID 1347091); conditions: SJ-GBM2 viability, CellTiter-Glo luminescence, 48 h; series mostly up to 46 µM; also: potency is read from the fitted curve at half-maximal effect
# Outline: as §1
# [5] = qHTS of pediatric cancer cell lines to identify multiple opportunities for drug repurposing: Primary screen for A673 cells (AID 1347092); conditions: A673 Ewing sarcoma viability, CellTiter-Glo ATP luminescence, 48 h; activity change, negative = cytotoxic: at 46 µM (top of the series); also: potency is read from the fitted curve at half-maximal effect; nearly all actives have a fitted effect of over 45% in size
# Outline: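 Titration-based qHTS on A673 cells: MIPE compounds spanned 11 points (0.78 nM to 46 µM final), NPC compounds 8 points (0.59 nM to 46 µM final). Viability after 48 h was measured by ATP luminescence.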
# [6] = qHTS of pediatric cancer cell lines to identify multiple opportunities for drug repurposing: Primary screen for SK-N-MC cells (AID 1347093); conditions: SK-N-MC viability, CellTiter-Glo luminescence, 48 h; activity change, negative = cytotoxic: at 46 µM (top of the series); also: potency is read from the fitted curve at half-maximal effect
# Outline: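 Metabolically active cells were quantified by ATP-dependent luminescence (CellTiter-Glo, 15 min at room temperature) following 48 h treatment. Cells had been plated at 500-1,000 per well and settled for 5 h beforehand.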
# [7] = qHTS of pediatric cancer cell lines to identify multiple opportunities for drug repurposing: Primary screen for BT-37 cells (AID 1347094); conditions: BT-37 viability, CellTiter-Glo luminescence, 48 h; series mostly up to 57.3 µM; also: potency is read from the fitted curve at half-maximal effect
# Outline: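 Plated cells (500-1,000 per well, growth media) were allowed to settle for 5 hours, treated with compound dilutions for 48 hours, then lysed with CellTiter-Glo for 15 min at room temperature before luminescence reading.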
# [8] = target: T1, Tyrosine-protein phosphatase non-receptor type substrate 1 (Homo sapiens) + Leukocyte surface antigen CD47 (Homo sapiens) (UniProt P78324+Q08722); assay: CD47-SIRPalpha protein protein interaction - HTRF assay qHTS validation (AID 1347058; active = well fitted curve in the direction sought with a large enough effect in the signal ratio, not every such curve was filed as active; inconclusive = small, poorly fitted or top-dose-only effect, or effect the other way, or a change in a side signal; inactive = no such curve, though single readings can be large or run the other way; the % refers to the signal ratio; also: potency is read from the fitted curve at half-maximal effect); conditions: TR-FRET HTRF CD47-His / biotin-SIRPalpha binding, ratio 665/615; series mostly up to 38.3 µM
# T1 sequence (P78324 whole entry, looked up, the tested form may be a part): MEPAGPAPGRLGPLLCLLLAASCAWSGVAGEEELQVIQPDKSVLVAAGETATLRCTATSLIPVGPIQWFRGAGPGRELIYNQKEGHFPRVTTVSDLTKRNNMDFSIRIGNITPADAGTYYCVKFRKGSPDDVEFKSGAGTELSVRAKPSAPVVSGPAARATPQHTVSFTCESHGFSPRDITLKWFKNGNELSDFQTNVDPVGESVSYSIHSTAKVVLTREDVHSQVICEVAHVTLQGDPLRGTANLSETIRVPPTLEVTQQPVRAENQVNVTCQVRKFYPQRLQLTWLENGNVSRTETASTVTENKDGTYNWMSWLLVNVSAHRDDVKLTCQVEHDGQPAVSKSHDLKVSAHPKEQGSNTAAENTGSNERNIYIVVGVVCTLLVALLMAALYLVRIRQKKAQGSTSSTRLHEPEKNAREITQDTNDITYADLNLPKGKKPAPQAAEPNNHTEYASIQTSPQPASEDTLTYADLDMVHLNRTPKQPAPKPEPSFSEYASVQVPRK
# T1 sequence (Q08722 whole entry, looked up, the tested form may be a part): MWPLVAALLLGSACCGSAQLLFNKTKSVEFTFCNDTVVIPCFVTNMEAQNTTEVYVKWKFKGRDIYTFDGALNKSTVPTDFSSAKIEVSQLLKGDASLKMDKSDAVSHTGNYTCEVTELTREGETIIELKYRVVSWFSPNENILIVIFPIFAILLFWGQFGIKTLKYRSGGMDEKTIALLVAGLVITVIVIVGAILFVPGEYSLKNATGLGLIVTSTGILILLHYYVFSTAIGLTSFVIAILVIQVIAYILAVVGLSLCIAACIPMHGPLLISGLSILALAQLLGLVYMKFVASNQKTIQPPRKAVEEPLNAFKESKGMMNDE
# Outline: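 TR-FRET read (Ch1/Ch2 ratio) of soluble extracellular CD47 and Avi-biotinylated SIRPalpha domains in PBS pH 7.4 with 0.05% IGEPAL; 7-point compound titration. Sequential 30 min room-temperature steps; non-biotinylated SIRPalpha as control inhibitor.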
# [9] = target: T1, Tyrosine-protein phosphatase non-receptor type substrate 1 (Homo sapiens) + Leukocyte surface antigen CD47 (Homo sapiens); assay: CD47-SIRPalpha protein protein interaction - LANCE assay qHTS validation (AID 1347057; active = well fitted curve in the direction sought with a large enough effect in the signal ratio, with a control signal flat, not every such curve was filed as active; inconclusive = small, poorly fitted or top-dose-only effect, or effect the other way, or a change in a side signal; inactive = no such curve, though single readings can be large or run the other way; the % refers to the signal ratio); conditions: Recombinant CD47-His / biotin-SIRPalpha, TR-FRET ratio; series mostly up to 38.3 µM
# Outline: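 First, His-tagged CD47 and Eu-labelled anti-His antibody met the compound for 30 min; next, site-specifically biotinylated SIRPalpha was added for 30 min; finally streptavidin-APC was added before reading the TR-FRET ratio.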
# Tags tell the direction and shape of the fitted curve.
structure (smiles),measurement,setting,value
CCc1nc(N)nc(N)c1-c1ccc(Cl)cc1,Potency,[1],"inconclusive: 35.5 µM [inhibitor, single point] and active: 9.35 µM"
same,Potency,[2],active: 3.74 µM and active: 11.7 µM
same,Potency,[3],active: 5.31 µM and active: 18.7 µM
same,Potency,[4],active: 2.66 µM and active: 4.18 µM
same,Potency,[5],active: 10.6 µM and active: 14.8 µM
same,Potency,[6],active: 668 nM and active: 1.18 µM
same,Potency,[7],"active: 6.92 µM and inconclusive: 8.63 µM [cytotoxic, full curve]"
CC[C@@]1(O)C(=O)OCc2c1cc1n(c2=O)Cc2cc3cc(O)ccc3nc2-1,Potency,[1],active: 0.0332 µM
COc1cc2nc(N3CCN(C(=O)c4ccco4)CC3)nc(N)c2cc1OC,Potency,[1],"inconclusive: 14.1 µM [inhibitor, single point] and active: 9.35 µM and inconclusive: 35.5 µM [inhibitor, single point]"
same,Potency,[8],inactive
same,Potency,[2],"inconclusive: 37 µM [cytotoxic, partial curve, poor fit]"
same,Potency,[3],"inconclusive: 9.2 µM [cytotoxic, single point] and inconclusive: 37.2 µM [cytotoxic, single point]"
same,Potency,[4],"inconclusive: 37.2 µM [cytotoxic, single point]"
same,Potency,[5],"inconclusive: 14.6 µM [cytotoxic, single point]"
same,Potency,[7],"inconclusive: 19 µM [cytotoxic, single point] and active: 24.3 µM"
OCCN1CCN(CCCN2c3ccccc3Sc3ccc(C(F)(F)F)cc32)CC1,Potency,[1],active: 16.6 µM
same,Potency,[8],inactive
same,Potency,[3],"inconclusive: 18.7 µM [cytotoxic, partial curve]"
same,Potency,[4],"inconclusive: 18.8 µM [cytotoxic, single point]"
same,Potency,[5],"inconclusive: 26.6 µM [cytotoxic, single point]"
same,Potency,[6],"inconclusive: 33.5 µM [cytotoxic, single point]"
same,Potency,[7],"inconclusive: 21.9 µM [cytotoxic, single point]"
c1ccc2c(-c3cnn4cc(-c5ccc(N6CCNCC6)cc5)cnc34)ccnc2c1,Potency,[1],active: 4.18 µM
same,Potency,[2],inactive
same,Potency,[3],"inconclusive: 29.6 µM [cytotoxic, partial curve, poor fit]"
same,Potency,[4],"inconclusive: 14.8 µM [cytotoxic, partial curve, poor fit]"
same,Potency,[5],"inconclusive: 3.72 µM [cytotoxic, full curve, poor fit]"
same,Potency,[6],"inconclusive: 5.9 µM [cytotoxic, full curve, poor fit]"
same,Potency,[7],"inconclusive: 24.3 µM [cytotoxic, partial curve, poor fit]"
O=C(O)c1cn(-c2ccc(F)cc2)c2cc(N3CCNCC3)c(F)cc2c1=O,Potency,[1],"inconclusive: 11.8 µM [inhibitor, single point]"
same,Potency,[2],inactive
CCC(C)N(C)C(=O)c1cc2ccccc2c(-c2ccccc2Cl)n1 (centres undefined),Potency,[1],"inconclusive: 10.5 µM [inhibitor, single point] and inactive"
same,Potency,[9],inactive
same,Potency,[2],inactive
same,Potency,[7],inactive
Clc1ccc(C(c2ccccc2Cl)C(Cl)Cl)cc1 (centres undefined),Potency,[1],active: 18.7 µM
same,Potency,[8],"inconclusive: 26.1 µM [side channel, falling, single point]"
same,Potency,[2],inactive
same,Potency,[3],"inconclusive: 18.7 µM [cytotoxic, single point]"
same,Potency,[5],"inconclusive: 33.5 µM [cytotoxic, single point]"
same,Potency,[6],"inconclusive: 33.5 µM [cytotoxic, single point]"
same,Potency,[7],"inconclusive: 24.6 µM [cytotoxic, single point] and inconclusive: 24.3 µM [cytotoxic, single point]"
COc1ccc(-c2nc(N3CCOCC3)c3sc(CN(C)c4ncc(C(=O)NO)cn4)cc3n2)cn1,Potency,[1],"inconclusive: 13.2 µM [inhibitor, partial curve, poor fit]"
CC(C)(C)NC(=O)Nc1cccc(Nc2ncc(F)c(NC(C)(C)CO)n2)c1,Potency,[1],inactive
same,Potency,[2],"inconclusive: 20.8 µM [cytotoxic, single point]"
same,Potency,[3],inactive
same,Potency,[4],"inconclusive: 2.64 µM [cytotoxic, full curve]"
CCOC(CN1C(=O)[C@](CC(=O)Nc2ccc(C)cc2)(NC(=O)Nc2ccc(C)cc2)c2ccccc21)OCC,Potency,[1],"inconclusive: 37.2 µM [inhibitor, single point]"
same,Potency,[2],inactive
same,Potency,[3],"inconclusive: 37.2 µM [cytotoxic, single point]"
same,Potency,[4],"inconclusive: 33.2 µM [cytotoxic, single point]"
same,Potency,[7],"inconclusive: 43.2 µM [cytotoxic, single point]"
CN[C@@H](C)C(=O)N[C@H]1CN(C(=O)CC(C)C)CC[C@H]2CC[C@@H](C(=O)NC(c3ccccc3)c3ccccc3)N2C1=O,Potency,[1],inactive
COCCCOc1cc(C[C@@H](C[C@H](N)[C@@H](O)C[C@H](C(=O)NCC(C)(C)C(N)=O)C(C)C)C(C)C)ccc1OC,Potency,[1],"inconclusive: 37.2 µM [inhibitor, single point]"
OCCCNc1cc(-c2ccnc(Nc3cccc(Cl)c3)n2)ccn1,Potency,[1],active: 0.418 µM
same,Potency,[2],active: 0.37 µM
COc1ccc(Cc2ccc(NC(N)=O)cc2)cc1-c1cccc(Cl)c1,Potency,[1],"inconclusive: 29.6 µM [inhibitor, single point]"
same,Potency,[2],inactive
same,Potency,[3],"inconclusive: 23.5 µM [cytotoxic, partial curve, poor fit]"
same,Potency,[4],"inconclusive: 23.5 µM [cytotoxic, single point]"
same,Potency,[5],"inconclusive: 18.7 µM [cytotoxic, partial curve]"
same,Potency,[7],"inconclusive: 24.3 µM [cytotoxic, partial curve, poor fit]"
CN1CCC(=C2c3ccccc3C=Cc3ccccc32)CC1,Potency,[1],"inconclusive: 37.2 µM [inhibitor, single point]"
same,Potency,[8],"inconclusive: 26.1 µM [side channel, falling, single point]"
same,Potency,[3],"inconclusive: 23.5 µM [cytotoxic, partial curve]"
same,Potency,[4],"inconclusive: 20.9 µM [cytotoxic, partial curve]"
same,Potency,[5],"inconclusive: 16.8 µM [cytotoxic, single point]"
same,Potency,[6],"inconclusive: 26.6 µM [cytotoxic, single point] and inconclusive: 11.8 µM [cytotoxic, partial curve, poor fit]"
same,Potency,[7],"inconclusive: 19.5 µM [cytotoxic, partial curve, poor fit] and inconclusive: 21.7 µM [cytotoxic, partial curve]"
COc1ccccc1OCCNCC(O)COc1cccc2[nH]c3ccccc3c12 (centres undefined),Potency,[1],"inconclusive: 35.5 µM [inhibitor, single point]"
same,Potency,[8],inactive
same,Potency,[2],"inconclusive: 29.7 µM [cytotoxic, single point]"
same,Potency,[4],"inconclusive: 29.9 µM [cytotoxic, single point]"
same,Potency,[5],"inconclusive: 26.6 µM [cytotoxic, single point]"
same,Potency,[7],"inconclusive: 24.6 µM [cytotoxic, single point] and inconclusive: 7.69 µM [cytotoxic, partial curve, poor fit]"
COc1cc2nccc(Oc3ccc(NC(=O)Nc4ccc(F)cc4F)c(F)c3)c2cc1OC,Potency,[1],"inconclusive: 37.2 µM [inhibitor, single point]"
same,Potency,[2],"inconclusive: 33 µM [cytotoxic, single point]"
same,Potency,[3],"inconclusive: 7.43 µM [cytotoxic, full curve]"
same,Potency,[5],"inconclusive: 5.9 µM [cytotoxic, partial curve]"
Cc1cc(C2CCCCC2)n(O)c(=O)c1,Potency,[1],active: 6.62 µM
same,Potency,[2],"inconclusive: 33 µM [cytotoxic, single point]"
same,Potency,[3],"inconclusive: 14.8 µM [cytotoxic, partial curve]"
same,Potency,[4],"inconclusive: 33.5 µM [cytotoxic, single point] and inconclusive: 4.69 µM [cytotoxic, full curve]"
same,Potency,[5],"inconclusive: 4.22 µM [cytotoxic, partial curve, poor fit] and active: 2.96 µM"
same,Potency,[7],"active: 3.09 µM and inconclusive: 5.44 µM [cytotoxic, full curve]"
CO[C@H]1/C=C\O[C@@]2(C)Oc3c(C)c(O)c4c(O)c(c5c(nc6cc(C)ccn65)c4c3C2=O)NC(=O)C(C)=CC=C[C@H](C)[C@H](O)[C@@H](C)[C@@H](O)[C@@H](C)[C@H](OC(C)=O)[C@H]1C,Potency,[1],"inconclusive: 29.6 µM [inhibitor, single point]"
COc1cc(C(=O)NC2CCN(C)CC2)ccc1Nc1ncc2c(n1)N(C1CCCC1)CCC(=O)N2C(C)C,Potency,[1],"inconclusive: 37.2 µM [inhibitor, single point]"
same,Potency,[2],"inconclusive: 29.4 µM [cytotoxic, single point]"
same,Potency,[3],"inconclusive: 2.96 µM [cytotoxic, full curve]"
same,Potency,[4],active: 2.35 µM
same,Potency,[7],active: 2.43 µM
Cc1ccc(C(=O)N(CCCN)[C@@H](c2oc3cc(Cl)ccc3c(=O)c2Cc2ccccc2)C(C)C)cc1,Potency,[1],active: 10.5 µM
CN(C)C(=O)[C@H](O)[C@H](Cc1ccccc1)NC(=O)c1cc2cc(Cl)ccc2[nH]1,Potency,[1],inactive
same,Potency,[2],"inconclusive: 1.04 µM [rising, full curve, poor fit]"
